Experiments:
[1] = molecular target: T1, full length PLXDC1 (PLXDC1-Full) (Homo sapiens, UniProt Q8IUK5); experiment: Domain A binding specificity: binding to full length PLXDC1 expressed in transfected cells
T1 construct: expressed in transfected cells
T1 sequence (Q8IUK5 19-500): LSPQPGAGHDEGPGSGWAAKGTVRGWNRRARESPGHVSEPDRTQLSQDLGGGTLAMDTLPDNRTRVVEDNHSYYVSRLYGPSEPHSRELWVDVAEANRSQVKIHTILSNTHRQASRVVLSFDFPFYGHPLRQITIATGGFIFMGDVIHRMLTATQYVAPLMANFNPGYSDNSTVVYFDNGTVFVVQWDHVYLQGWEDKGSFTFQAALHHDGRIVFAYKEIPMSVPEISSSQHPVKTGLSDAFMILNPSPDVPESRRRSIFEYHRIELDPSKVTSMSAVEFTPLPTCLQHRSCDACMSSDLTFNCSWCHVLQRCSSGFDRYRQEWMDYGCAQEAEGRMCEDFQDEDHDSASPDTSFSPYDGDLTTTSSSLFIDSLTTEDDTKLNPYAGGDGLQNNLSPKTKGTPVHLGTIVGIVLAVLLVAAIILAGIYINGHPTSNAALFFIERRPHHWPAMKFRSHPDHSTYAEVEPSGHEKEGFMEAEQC
Text: (§1) The specific binding to Domain A of a PLXDC protein can be tested with a method described herein. In some embodiments, the method employs a PLXDC with the Domain A deleted. […] An example is Compound 369 as described above.
(§2) The Domain A-binding antibodies are 3-C11, 4-A8, 5-E2, 2-H2, 3-G6, 3-G7, 8-A7, 8-A9, 8-C9 and 8-D9.
(§3) Both full length PLXDC1 and Domain A deleted PLXDC1 (PLXDC1-dA) have an epitope tag on the N-terminus.

[2] = molecular target: T2, Domain A-deleted PLXDC1 (PLXDC1-dA) (Homo sapiens, UniProt Q8IUK5); experiment: Domain A binding specificity: binding to Domain A-deleted PLXDC1 expressed in transfected cells
T2 construct: expressed in transfected cells
Text: as §1, §2, §3

[3] = antibodies of Table 3 tested for ability to bind Domain A
[4] = transfected into a cell line that does not express PLXDC1, FIG. 3-4

B1: A003: VH SEQ ID NO:98, VL SEQ ID NO:99; Domain A-binding PLXDC1-activating antibody (antibody, V domains shown)
VH: QVQLVESGGGVVQPGRSLRLSCAASGFTFRDYGMHWVRQAPGKGLEWVAVISYHGRNEYYANSVKGRFTISRDNSKNTLYLQMNSLRAEDTAVYYCARGAYGDDFDVWGQGTLVTVSS
VL: [not shown - about 100 residues]
binding to PLXDC1 [1, 3]: able to bind PLXDC1
binding to full length PLXDC1 (PLXDC1-Full) [1, 4]: only bound to full length PLXDC1
binding to PLXDC1 mutant with Domain A deleted [2, 3]: not the mutant with Domain A deleted
binding to Domain A-deleted PLXDC1 (PLXDC1-dA) [2, 4]: did not bind to Domain A-deleted PLXDC1
